According to PubChem BioAssay (Tox21):
This list was built around the results that the source calls inconclusive (neither active nor inactive); the mix of calls is not that of the screen. For some assays here: Where the call is inconclusive, the potency comes from a doubtful curve fit. Activity calls are given as the source filed them. Unless noted, calls come from the whole dose curve; as a rule, active = well fitted curve in the direction sought with a large enough effect in the repeat runs; inconclusive = weak or mixed curves; inactive = no such curve, though single readings can be large; an effect the other way counts as inactive or inconclusive.

How the values were obtained:
[1] = molecular target: Glucocorticoid receptor (Homo sapiens) (UniProt P04150); experiment: qHTS assay to identify small molecule agonists of the glucocorticoid receptor (GR) signaling pathway (AID 720691; active = well fitted activation curve with a large enough effect in the signal ratio in the repeat runs, not every such curve was filed as active; inconclusive = weak or mixed curves, or effect the other way; inactive = no such curve, though single readings can be large or run the other way; the % refers to the signal ratio; note: potency is the fitted concentration of half-maximal effect); details: GR-bla HeLa, beta-lactamase reporter ratio, 18 h; activation: at 62.4 µM (top of the series) unless noted
Summary of the method: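 Cells: GR-bla HeLa, endogenous GR with stably integrated GRE-beta-lactamase reporter. Treatment 18 h, 37 C, compounds delivered in DMSO. Detection via LiveBLAzer B/G FRET substrate, 2 h RT, fluorescence intensity.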

[2] = molecular target: Glucocorticoid receptor (Homo sapiens) (UniProt P04150); experiment: qHTS assay to identify small molecule antagonists of the glucocorticoid receptor (GR) signaling pathway (AID 720692; active = well fitted inhibition curve with a large enough effect in the signal ratio in the repeat runs, not every such curve was filed as active; inconclusive = weak or mixed curves, or effect the other way; inactive = no such curve, though single readings can be large or run the other way; the % refers to the signal ratio; note: potency is the fitted concentration of half-maximal effect); details: GR-bla HeLa, beta-lactamase FRET ratio, dexamethasone-stimulated, 18 h; activity change, negative = inhibition: at 58.5 µM (top of the series) unless noted
Summary of the method: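 Quantitative HTS in antagonist format: HeLa cells expressing endogenous GR and a stably integrated GRE-bla reporter, stimulated with 5 nM dexamethasone (final) alongside test compounds for 18 h.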

[3] = molecular target: Estrogen receptor (Homo sapiens) (UniProt P03372); experiment: qHTS assay to identify small molecule agonists of the estrogen receptor alpha (ER-alpha) signaling pathway using the BG1 cell line (AID 743079); details: BG1Luc4E2 cells, ERE-luciferase agonist, 22 h; activation: at 70.3 µM (top of the series) unless noted; note: potency is the fitted concentration of half-maximal effect; nearly all actives have a fitted effect of over 20% in size
[4] = molecular target: Aryl hydrocarbon receptor (Homo sapiens) (UniProt P35869); experiment: qHTS assay to identify small molecule that activate the aryl hydrocarbon receptor (AhR) signaling pathway (AID 743085);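 note: HG2L7.5c1 human HepG2 liver cells with stably integrated DRE-driven firefly reporter; % is set by controls: 0 for no effect and ±100 for the full control effect; nearly all actives have a fitted effect of over 15% in size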
Summary of the method: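 Measured in HG2L7.5c1 cells: CellTiter-Fluor signal (30 min incubation, 37C) for viability, then luciferase luminescence (30 min, room temperature). Compound contact time was 24 h at 37C, following a 5 h pre-incubation.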

[5] = qHTS assay to identify small molecule that activate the aryl hydrocarbon receptor (AhR) signaling pathway - cell viability counter screen (AID 743086);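 note: HepG2 liver cells carrying the AhR DRE luciferase reporter; % is set by controls: 0 for no effect and ±100 for the full control effect; nearly all actives have a fitted effect of over 45% in size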
Summary of the method: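 Cytotoxicity counter screen: CellTiter-Fluor signal (30 min, 37 C) in 4000 HepG2 cells/well carrying the DRE-luciferase reporter, following 24 h compound exposure at 37 C.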

[6] = molecular target: Vitamin D3 receptor (Homo sapiens) (UniProt P11473); experiment: qHTS assay to identify small molecule antagonists of the vitamin D receptor (VDR) signaling pathway (AID 743223; active = well fitted inhibition curve with a large enough effect in the signal ratio in the repeat runs, not every such curve was filed as active; inconclusive = weak or mixed curves, or effect the other way; inactive = no such curve, though single readings can be large or run the other way; the % refers to the signal ratio; note: % is set by controls: 0 for no effect and ±100 for the full control effect); details: VDR-UAS-bla HEK293T, beta-lactamase FRET ratio, 16 h; activity change, negative = inhibition: at 61 µM (top of the series) unless noted
Summary of the method: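 Beta-lactamase activity in VDR-bla cells is measured by FRET substrate fluorescence (2 h, room temperature) after cells spend 16 h at 37C with test compound and 3 nM final 1alpha,25-dihydroxyvitamin D3.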

[7] = qHTS assay to identify small molecule antagonists of the vitamin D receptor (VDR) signaling pathway - cell viability counter screen (AID 743225); details: VDR-bla HEK293T viability, CellTiter-Glo luminescence, 16 h; viability change, negative = cytotoxic: at 61 µM (top of the series) unless noted; note: nearly all actives have a fitted effect of over 50% in size; note: potency is the fitted concentration of half-maximal effect
Summary of the method: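 In this counter screen, VDR-bla HEK 293T cells receive test compound plus 3 nM final calcitriol for 16 h at 37C. Room-temperature steps of 2 h with the beta-lactamase substrate, then 30 min with CellTiter-Glo, precede the luminescence read.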

[8] = qHTS assay to identify small molecule antagonists of the estrogen related receptor (ERR) signaling pathway from Tox21 library - cell viability counter screen (AID 1224834); note: % is set by controls: 0 for no effect and ±100 for the full control effect; nearly all actives have a fitted effect of over 30% in size
Summary of the method: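 Compounds in DMSO were pinned onto ERR cells that had been incubated for 6 h, and the plates were held at 37 C for 17.5 h. CellTiter-Fluor reagent was then added and fluorescence was measured after 30 min.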

[9] = qHTS RealTime-Glo MT Cell Viability Assay in HEK293 cells - 40 hour (AID 1224874); details: RealTime-Glo luminescence; max response: stronger effect = lower value; note: % is set by controls: 0 for no effect and ±100 for the full control effect; nearly all actives have a fitted effect of over 50% in size
Summary of the method: (§1)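 600 HEK293 cells per well, dispensed already mixed with RealTime-Glo MT reagents. Compound dosing came 5 h later. The same wells were read for luminescence at 0, 8, 16, 24, 32 and 40 h of exposure at 37 C.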

[10] = qHTS RealTime-Glo MT Cell Viability Assay in HEK293 cells - 0 hour (AID 1224880); note: top concentration of the series differs between compounds; % is set by controls: 0 for no effect and ±100 for the full control effect; nearly all actives have a fitted effect of over 45% in size
Summary of the method: as §1

[11] = qHTS assay to identify small molecule antagonists of the sonic hedgehog signaling (Shh) pathway (AID 1259369; calls by dose curve; note: % is set by controls: 0 for no effect and ±100 for the full control effect; nearly all actives have a fitted effect of over 45% in size)
Summary of the method: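 Stable Gli1-Luc reporter NIH/3T3 clone; quantitative HTS in stimulated mode with conditioned medium. Luminescence measured after 24hr compound treatment at 37 C.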

[12] = molecular target: Progesterone receptor (Homo sapiens) (UniProt P06401); experiment: qHTS assay to identify small molecule antagonists of the progesterone receptor (PR) signaling pathway (AID 1346795; active = well fitted inhibition curve with a large enough effect in the signal ratio in the repeat runs, not every such curve was filed as active; inconclusive = weak or mixed curves; the % refers to the signal ratio; note: % is set by controls: 0 for no effect and ±100 for the full control effect); details: PR-UAS-bla HEK293T, beta-lactamase FRET ratio, 16 h; activity change, negative = inhibition: at 92.4 µM (top of the series) unless noted
Summary of the method: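 Inhibition of R5020-induced (1 nM final) beta-lactamase reporter signal in PR-UAS-bla HEK293T cells was scored by FRET fluorescence after overnight (16 hr) compound treatment.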

[13] = molecular target: Cytochrome P450 2C19 (Homo sapiens) (UniProt P33261); experiment: Cytochrome P450 Family 2 Subfamily C Member 19 (CYP2C19) small molecule antagonists: luciferase reporter qHTS assay (AID 1671197); note: potency is the fitted concentration of half-maximal effect; nearly all actives have a fitted effect of over 65% in size
Summary of the method: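 Enzyme-substrate mix with proluciferin substrate (P450-Glo CYP2C19 system) preincubated with compounds 10 min at room temperature; NADPH regeneration solution added, 37C for 1 h; detection reagent stops reaction, luminescence read after 20 min. Ketoconazole positive control.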

[14] = molecular target: Androgen receptor (Homo sapiens) (UniProt P10275); experiment: qHTS assay to identify small molecule antagonists of the androgen receptor (AR) signaling pathway (AID 743035; active = well fitted inhibition curve with a large enough effect in the signal ratio in the repeat runs, not every such curve was filed as active; inconclusive = weak or mixed curves, or effect the other way; inactive = no such curve, though single readings can be large or run the other way; the % refers to the signal ratio; note: % is set by controls: 0 for no effect and ±100 for the full control effect); details: HEK293 AR-UAS-bla, R1881-stimulated, beta-lactamase FRET, 16 h; activity change, negative = inhibition: at 58.5 µM (top of the series) unless noted
Summary of the method: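 Quantitative HTS of the Tox21 10K library used HEK293 AR-UAS-bla cells stimulated with R1881 alongside compound for 16 h at 37C, followed by beta-lactamase FRET detection (LiveBLAzer B/G, 2 h, RT).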

[15] = qHTS assay for small molecule agonists of the antioxidant response element (ARE) signaling pathway (AID 743202; active = well fitted activation curve with a large enough effect in the signal ratio in the repeat runs, not every such curve was filed as active; inconclusive = weak or mixed curves, or effect the other way; inactive = no such curve, though single readings can be large or run the other way; the % refers to the signal ratio; note: % is set by controls: 0 for no effect and ±100 for the full control effect); details: HepG2 ARE-bla reporter, beta-lactamase FRET, 16 h; activation: at 73.3 µM (top of the series) unless noted
Summary of the method: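 Beta-lactamase reporter activity, read as fluorescence intensity, reflects ARE/Nrf2 pathway induction in HepG2 cells after 16 h compound exposure at 37 C; substrate loading was 2 h at room temperature.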

[16] = molecular target: Vitamin D3 receptor (Homo sapiens) (UniProt P11473); experiment: qHTS assay to identify small molecule agonists of the vitamin D receptor (VDR) signaling pathway (AID 743222; calls by dose curve; note: potency is the fitted concentration of half-maximal effect); details: HEK293T VDR-UAS-bla, beta-lactamase FRET ratio, 16 h; activation: at 63.5 µM (top of the series) unless noted
Summary of the method: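 Fluorescence from cleaved LiveBLAzer B/G FRET substrate served as readout. VDR-bla cells had been treated 16 h at 37C with test compounds in DMSO, following a 4 h settling period, and substrate was loaded for 2 h at RT.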

[17] = molecular target: Luciferin 4-monooxygenase (Photinus pyralis) (UniProt P08659); experiment: qHTS assay to identify small molecule inhibitors of firefly luciferase (AID 1224835); note: % is set by controls: 0 for no effect and ±100 for the full control effect; nearly all actives have a fitted effect of over 25% in size
Summary of the method: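 Inhibition of purified Photinus luciferase is measured by luminescence. Substrate levels (D-luciferin, ATP) sit at their KM values. Each compound is tested in a concentration series.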

[18] = qHTS assay to identify small molecule antagonists of the estrogen related receptor signaling pathway with the pleiotropic PPARgamma coactivator (PGC) from Tox21 10K library - cell viability counter screen (AID 1224840; active = well fitted cell-killing curve with a large enough effect in the repeat runs, not every such curve was filed as active; inconclusive = weak or mixed curves, or effect the other way; inactive = no such curve, though single readings can be large or run the other way; note: % is set by controls: 0 for no effect and ±100 for the full control effect; nearly all actives have a fitted effect of over 40% in size)
Summary of the method: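 Cell viability is measured by CellTiter-Fluor fluorescence in PGC/ERR cells that receive compounds after a 6-hour attachment period and are then incubated 17.5 hours at 37 C.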

[19] = molecular target: Nuclear receptor subfamily 1 group I member 2 (Homo sapiens) (UniProt O75469); experiment: Human pregnane X receptor (PXR) small molecule agonists, qHTS assay (AID 1346982); note: potency is the fitted concentration of half-maximal effect; nearly all actives have a fitted effect of over 35% in size
Summary of the method: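 Reporter HepG2 cells expressing PXR-Luc are cultured in charcoal-stripped FBS (5%), treated with compounds for 24 hr at 37 C, and assayed by ONE-Glo luminescence after 30 min at room temperature.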

[20] = molecular target: Cytochrome P450 1A2 (Homo sapiens) (UniProt P05177); experiment: Cytochrome P450 Family 1 Subfamily A Member 2 (CYP1A2) small molecule antagonists: luciferase reporter qHTS assay (AID 1671199); note: potency is the fitted concentration of half-maximal effect; nearly all actives have a fitted effect of over 50% in size
Summary of the method: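 Steps: enzyme-substrate mix dispensed; test compounds and furafylline control pinned in; 10 min room temperature; NADPH regeneration solution added, 1 h; reaction stopped with luciferin detection reagent; luminescence read after 20 min.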

[21] = qHTS assay for small molecule agonists of the p53 signaling pathway (AID 651631; calls by dose curve; note: potency is the fitted concentration of half-maximal effect; nearly all actives have a fitted effect of over 15% in size); details: HCT-116 p53RE-bla reporter, beta-lactamase FRET ratio, 16 h; activation: at 73.3 µM (top of the series) unless noted
Summary of the method: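 Stably transfected HCT-116 cells (beta-lactamase behind p53 response elements) get compounds after a 5 h settling period; 16 h later at 37 °C, FRET substrate is loaded and fluorescence read after 2 h.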

[22] = qHTS assay for small molecule disruptors of the mitochondrial membrane potential (AID 720635); details: HepG2 mitochondrial membrane potential, Mito-MPS dye ratio; ratio activity, negative = MMP loss: at 83.2 µM (top of the series) unless noted; note: potency is the fitted concentration of half-maximal effect
Summary of the method: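 Mitochondrial membrane potential tracked with Mito-MPS dye, red aggregates (ex 540/em 590 nm) against green monomers (ex 490/em 535 nm). Compound treatment 1 hr at 37C, dye 30 min in HepG2.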

[23] = qHTS assay to identify small molecule antagonists of the estrogen receptor alpha (ER-alpha) signaling pathway - cell viability counter screen (AID 743074; calls by dose curve;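 note: HEK293 cells carrying ER-alpha-UAS-bla reporter stimulated with 17beta-estradiol; potency is the fitted concentration of half-maximal effect; nearly all actives have a fitted effect of over 45% in size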)
[24] = qHTS assay to identify small molecule antagonists of the estrogen receptor alpha (ER-alpha) signaling pathway using the BG1 cell line - cell viability counter screen (AID 743081); details: BG1Luc4E2 viability, CellTiter-Fluor, 22 h; activity change, negative = cytotoxicity: at 70.3 µM (top of the series) unless noted
[25] = qHTS assay to identify small molecule agonists of the vitamin D receptor (VDR) signaling pathway - cell viability counter screen (AID 743224); note: % is set by controls: 0 for no effect and ±100 for the full control effect; nearly all actives have a fitted effect of over 50% in size
Summary of the method: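 Compounds were pin-transferred onto VDR-bla cells plated 4 h earlier; following 16 h incubation at 37C, cell viability was quantified by CellTiter-Glo luminescence after 30 min at room temperature.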

[26] = qHTS assay to identify small molecule antagonists of the estrogen related receptor signaling pathway with the pleiotropic PPARgamma coactivator (PGC) from Tox21 10K library (AID 1224841; call rule not given here)
Summary of the method: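 Cells stably carrying the PGC/ERR reporter, seeded at 2,000 per well, received pin-transferred compounds 6 h post-plating. Exposure lasted 18 h at 37 C. Signal: One-Glo luminescence.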

[27] = molecular target: Thyrotropin receptor (Homo sapiens) (UniProt P16473); experiment: qHTS assay to identify small molecule agonists of the thyroid stimulating hormone receptor (TSHR) signaling pathway (AID 1224843; calls by dose curve); details: TSHR-HEK293 cells, cAMP HTRF, agonist mode, 30 min; activation: at 92.4 µM (top of the series) unless noted
Summary of the method: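 A cell-based cAMP HTRF format was run in TSHR-transfected HEK293 cells, 800 per well. Treatment: 30 min, room temperature. Detection: 1 h with labelled cAMP and anti-cAMP cryptate. Concentration-response over 15 points, three replicates.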

[28] = qHTS assay to identify small molecule agonists of the progesterone receptor (PR) signaling pathway - cell viability counter screen (AID 1346799; calls by dose curve)
Summary of the method: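 Cytotoxicity in PR-bla HEK293T cells: 16 h compound, 37C; CellTiter-Glo added post-FRET read; luminescence after 30 min RT.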

[29] = molecular target: Cytochrome P450 2D6 (Homo sapiens) (UniProt P10635); experiment: Cytochrome P450 Family 2 Subfamily D Member 6 (CYP2D6) small molecule antagonists: luciferase reporter qHTS assay (AID 1671196)
Summary of the method: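 Test chemicals meet CYP2D6 plus proluciferin substrate (10 min, RT); NADPH regenerating solution then drives turnover for 1 h. Detection reagent halts the reaction; luminescence measured after 20 min.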
Tags give direction and shape of the fitted curve or compound fluorescence and quenching.

UniProt P11473, sequence (P11473 whole entry, looked up): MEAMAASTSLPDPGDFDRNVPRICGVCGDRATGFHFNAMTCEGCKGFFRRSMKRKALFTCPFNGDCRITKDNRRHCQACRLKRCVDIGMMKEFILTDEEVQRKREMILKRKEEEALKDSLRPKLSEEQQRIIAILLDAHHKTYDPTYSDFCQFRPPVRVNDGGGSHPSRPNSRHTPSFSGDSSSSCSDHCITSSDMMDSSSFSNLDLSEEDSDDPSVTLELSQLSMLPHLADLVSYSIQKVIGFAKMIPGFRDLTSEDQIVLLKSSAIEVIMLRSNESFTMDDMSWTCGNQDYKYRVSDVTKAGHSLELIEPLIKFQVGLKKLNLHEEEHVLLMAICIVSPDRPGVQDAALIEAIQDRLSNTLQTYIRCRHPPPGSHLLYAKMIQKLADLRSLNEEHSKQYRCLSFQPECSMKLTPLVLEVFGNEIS
UniProt P05177, sequence (P05177 whole entry, looked up): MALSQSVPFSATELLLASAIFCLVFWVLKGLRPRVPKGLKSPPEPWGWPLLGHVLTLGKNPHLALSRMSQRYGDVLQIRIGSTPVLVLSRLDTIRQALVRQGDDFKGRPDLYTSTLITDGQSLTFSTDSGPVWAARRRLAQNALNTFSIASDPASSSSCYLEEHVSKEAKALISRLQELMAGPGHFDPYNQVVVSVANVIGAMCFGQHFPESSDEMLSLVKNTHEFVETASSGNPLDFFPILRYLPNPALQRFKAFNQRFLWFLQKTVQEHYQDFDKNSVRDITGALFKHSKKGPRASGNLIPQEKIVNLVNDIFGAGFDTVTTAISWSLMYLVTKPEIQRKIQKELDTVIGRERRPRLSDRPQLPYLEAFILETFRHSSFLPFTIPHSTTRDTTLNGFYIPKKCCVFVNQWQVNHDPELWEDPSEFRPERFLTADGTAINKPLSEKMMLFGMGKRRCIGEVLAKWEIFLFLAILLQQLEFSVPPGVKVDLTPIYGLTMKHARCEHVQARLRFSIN
UniProt P04150, sequence (P04150 whole entry, looked up): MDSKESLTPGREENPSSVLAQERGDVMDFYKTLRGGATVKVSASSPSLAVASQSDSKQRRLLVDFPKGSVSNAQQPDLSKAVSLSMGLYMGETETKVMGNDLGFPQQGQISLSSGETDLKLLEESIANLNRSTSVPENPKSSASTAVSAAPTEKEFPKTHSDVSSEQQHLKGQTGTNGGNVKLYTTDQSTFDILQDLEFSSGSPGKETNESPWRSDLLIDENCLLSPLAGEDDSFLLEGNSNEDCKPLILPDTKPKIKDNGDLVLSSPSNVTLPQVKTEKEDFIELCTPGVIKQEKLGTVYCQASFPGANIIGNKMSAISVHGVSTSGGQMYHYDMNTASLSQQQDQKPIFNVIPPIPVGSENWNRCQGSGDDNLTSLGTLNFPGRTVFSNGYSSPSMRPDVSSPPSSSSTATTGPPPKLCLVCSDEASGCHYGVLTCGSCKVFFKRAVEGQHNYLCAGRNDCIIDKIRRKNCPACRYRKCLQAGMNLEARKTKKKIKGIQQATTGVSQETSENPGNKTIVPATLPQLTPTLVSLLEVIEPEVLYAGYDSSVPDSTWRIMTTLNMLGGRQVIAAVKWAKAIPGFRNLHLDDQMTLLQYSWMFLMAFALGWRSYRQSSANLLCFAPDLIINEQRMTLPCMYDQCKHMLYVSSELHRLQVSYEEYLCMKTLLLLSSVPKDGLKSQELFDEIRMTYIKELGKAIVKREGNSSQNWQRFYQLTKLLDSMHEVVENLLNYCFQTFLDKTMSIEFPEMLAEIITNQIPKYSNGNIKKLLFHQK
UniProt P08659, sequence (P08659 whole entry, looked up): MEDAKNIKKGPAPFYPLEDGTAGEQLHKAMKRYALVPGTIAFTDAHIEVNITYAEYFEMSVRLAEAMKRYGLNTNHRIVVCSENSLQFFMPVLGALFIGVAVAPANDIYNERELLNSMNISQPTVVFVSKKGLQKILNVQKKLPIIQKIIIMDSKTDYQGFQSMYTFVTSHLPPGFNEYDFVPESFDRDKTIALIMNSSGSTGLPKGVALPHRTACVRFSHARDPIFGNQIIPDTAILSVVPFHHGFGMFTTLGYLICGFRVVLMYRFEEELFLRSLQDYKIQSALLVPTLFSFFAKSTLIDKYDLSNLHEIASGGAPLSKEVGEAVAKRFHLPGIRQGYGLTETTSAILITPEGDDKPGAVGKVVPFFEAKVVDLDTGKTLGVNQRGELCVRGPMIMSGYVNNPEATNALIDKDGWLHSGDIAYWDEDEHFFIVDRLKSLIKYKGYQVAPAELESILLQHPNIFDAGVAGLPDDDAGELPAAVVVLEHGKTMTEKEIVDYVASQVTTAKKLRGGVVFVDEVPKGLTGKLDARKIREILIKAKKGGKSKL
UniProt O75469, sequence (O75469 whole entry, looked up): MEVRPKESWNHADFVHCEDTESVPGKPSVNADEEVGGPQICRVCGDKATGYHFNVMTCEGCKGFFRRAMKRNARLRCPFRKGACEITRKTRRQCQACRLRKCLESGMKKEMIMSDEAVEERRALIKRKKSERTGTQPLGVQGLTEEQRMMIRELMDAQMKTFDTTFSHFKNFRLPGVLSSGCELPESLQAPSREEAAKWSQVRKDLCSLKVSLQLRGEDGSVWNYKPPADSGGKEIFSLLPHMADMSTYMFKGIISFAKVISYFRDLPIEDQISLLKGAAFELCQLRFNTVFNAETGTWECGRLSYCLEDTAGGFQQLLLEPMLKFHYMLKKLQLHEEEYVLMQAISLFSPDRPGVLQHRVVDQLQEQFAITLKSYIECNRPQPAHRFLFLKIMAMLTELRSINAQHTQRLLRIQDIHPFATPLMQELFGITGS
UniProt P10275, sequence (P10275 whole entry, looked up): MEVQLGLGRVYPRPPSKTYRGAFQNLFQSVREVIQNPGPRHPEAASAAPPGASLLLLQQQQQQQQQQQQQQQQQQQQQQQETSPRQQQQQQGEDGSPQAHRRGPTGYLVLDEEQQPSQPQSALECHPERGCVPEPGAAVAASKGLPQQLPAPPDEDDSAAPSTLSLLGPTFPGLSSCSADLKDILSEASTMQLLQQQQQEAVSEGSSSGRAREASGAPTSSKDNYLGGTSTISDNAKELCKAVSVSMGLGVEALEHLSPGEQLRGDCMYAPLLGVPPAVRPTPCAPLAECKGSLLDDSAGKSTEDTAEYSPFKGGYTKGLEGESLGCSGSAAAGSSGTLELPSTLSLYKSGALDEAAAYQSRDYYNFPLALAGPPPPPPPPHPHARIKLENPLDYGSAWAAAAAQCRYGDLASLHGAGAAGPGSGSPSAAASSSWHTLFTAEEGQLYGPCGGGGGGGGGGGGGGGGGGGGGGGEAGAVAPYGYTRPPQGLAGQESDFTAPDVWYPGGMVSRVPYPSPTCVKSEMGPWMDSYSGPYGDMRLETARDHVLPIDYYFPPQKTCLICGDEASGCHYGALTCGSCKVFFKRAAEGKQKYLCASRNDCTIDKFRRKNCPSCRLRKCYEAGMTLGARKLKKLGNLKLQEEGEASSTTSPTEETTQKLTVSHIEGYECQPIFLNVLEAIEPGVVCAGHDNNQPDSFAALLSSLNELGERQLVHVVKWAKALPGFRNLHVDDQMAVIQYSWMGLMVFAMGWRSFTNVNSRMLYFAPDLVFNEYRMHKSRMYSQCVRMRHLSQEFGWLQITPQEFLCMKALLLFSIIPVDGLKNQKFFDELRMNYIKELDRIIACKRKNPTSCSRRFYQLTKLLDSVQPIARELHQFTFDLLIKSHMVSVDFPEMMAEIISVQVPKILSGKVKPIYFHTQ
UniProt P33261, sequence (P33261 whole entry, looked up): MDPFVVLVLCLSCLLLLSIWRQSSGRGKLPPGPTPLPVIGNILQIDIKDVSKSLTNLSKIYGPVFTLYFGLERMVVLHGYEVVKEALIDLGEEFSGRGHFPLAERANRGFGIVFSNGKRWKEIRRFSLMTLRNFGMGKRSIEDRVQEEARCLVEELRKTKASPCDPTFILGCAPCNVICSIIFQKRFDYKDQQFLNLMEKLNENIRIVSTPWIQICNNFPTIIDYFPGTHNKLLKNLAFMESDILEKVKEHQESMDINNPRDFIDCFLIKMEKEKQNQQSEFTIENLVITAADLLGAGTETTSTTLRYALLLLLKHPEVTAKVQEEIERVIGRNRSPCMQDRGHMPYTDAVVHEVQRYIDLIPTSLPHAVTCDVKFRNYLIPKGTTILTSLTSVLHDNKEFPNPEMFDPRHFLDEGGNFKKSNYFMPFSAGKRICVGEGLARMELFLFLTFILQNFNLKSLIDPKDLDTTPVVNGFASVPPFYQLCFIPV
UniProt P06401, sequence (P06401 whole entry, looked up): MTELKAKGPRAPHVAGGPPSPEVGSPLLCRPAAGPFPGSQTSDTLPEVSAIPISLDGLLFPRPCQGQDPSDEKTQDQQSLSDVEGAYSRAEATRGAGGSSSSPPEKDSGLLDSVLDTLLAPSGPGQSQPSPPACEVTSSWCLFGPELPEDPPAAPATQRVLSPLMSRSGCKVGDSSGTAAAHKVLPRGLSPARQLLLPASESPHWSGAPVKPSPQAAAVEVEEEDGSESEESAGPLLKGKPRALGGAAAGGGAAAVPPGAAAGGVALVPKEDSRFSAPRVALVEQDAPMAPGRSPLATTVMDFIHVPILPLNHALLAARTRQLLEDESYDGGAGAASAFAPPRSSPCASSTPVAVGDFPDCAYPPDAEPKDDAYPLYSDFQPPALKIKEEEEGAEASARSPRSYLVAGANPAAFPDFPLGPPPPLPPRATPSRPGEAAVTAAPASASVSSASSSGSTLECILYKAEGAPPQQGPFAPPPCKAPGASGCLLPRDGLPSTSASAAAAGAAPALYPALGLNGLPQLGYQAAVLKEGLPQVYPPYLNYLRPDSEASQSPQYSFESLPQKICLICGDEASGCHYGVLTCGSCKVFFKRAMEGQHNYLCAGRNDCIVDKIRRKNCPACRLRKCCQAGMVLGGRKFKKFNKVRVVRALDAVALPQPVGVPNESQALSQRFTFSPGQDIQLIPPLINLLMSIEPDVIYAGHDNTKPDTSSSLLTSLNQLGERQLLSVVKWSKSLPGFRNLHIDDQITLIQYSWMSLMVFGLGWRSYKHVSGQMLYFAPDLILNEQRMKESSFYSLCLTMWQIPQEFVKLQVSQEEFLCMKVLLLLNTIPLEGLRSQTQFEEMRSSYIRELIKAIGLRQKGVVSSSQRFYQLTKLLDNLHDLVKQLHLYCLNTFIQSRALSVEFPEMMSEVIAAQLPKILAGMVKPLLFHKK

CC(=O)Nc1ccc(C)cc1
inconclusive: Potency [1] 48.6 µM [activator, partial curve] | Potency [2] 38.6 µM [activator, partial curve, poor fit] | Potency [3] 3.83 µM [activator, full curve, poor fit] | Potency [7] 21.7 µM [cytotoxic, partial curve, poor fit] | Potency [13] 79 µM [inhibitor]
inactive: Potency [4] | Potency [5] | Potency [6] | Potency [8] | max response [9] -5.67% | Potency [10] | Potency [11] | Potency [12]

N#Cc1ccccc1C#N
inactive: Potency [14] | Potency [5] | Potency [15] | Potency [7] | Potency [17] | Potency [18]
inconclusive: Potency [16] 19 µM [fluorescent, single point] | Potency [19] 53.2 µM [activator] | Potency [20] 34.7 µM [inhibitor, partial curve, poor fit]

O=Cc1cccc([N+](=O)[O-])c1
inactive: Potency [24] | Potency [16] | Potency [25] | Potency [17]
inconclusive: Potency [21] 0.271 µM [falling, single point] | Potency [22] 68.1 µM [inhibitor, single point] | Potency [23] 21.7 µM [rising, single point] | activation [15] 15.2% | Potency [27] 68.1 µM [falling, partial curve, poor fit] | Potency [28] 27.1 µM [rising, single point] | Potency [29] 56 µM [inhibitor, partial curve]
active: Potency [26] 24.2 µM | Potency [20] 39.7 µM
